From the RNAGym collection of RNA variant scans (doi:10.1093/nar/gkz1192) come the findings set out here.

The source gives no read counts; variants with many changes may rest on few reads.

The labels stand for the following.
B1: CPEB3 Ribozyme (parent)
chain: UAACAGGGGGCCACAGCAGAAGCGUUCACGUCGCAGCCCCUGUCAGAUUCUGGUGAAUCUGCGAAUUCUGCUGUAUAUCUC

In the data set the parent is B1. The experiment in a line: self-cleavage, relative activity (ratio to wild type); higher = more cleavage; in vitro, sequencing. The method in brief:
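Relative activity compares each variant's cleaved/total read fraction with that of the unmutated ribozyme. To get these fractions, barcoded CPEB3 ribozyme libraries from rounds of error-prone PCR were transcribed with T7 RNA polymerase for 5 hours at 37°C and then given 15 min of DNase I treatment before EDTA was added. The RNAs were reverse transcribed with template switching and sequenced on Illumina, and DNA sequencing linked barcodes to variants. A minimum of 5 reads applied, and three batches were averaged.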
Take UAACAGGGGGCCCCAGCAGAAGCGUUCACGUCGCAGCCCCUGUCAGAUUCUGGUGAAUCCCCUAAUUCUGCUGUAUAUCUC [A13C U60C G61C G63U]: the self-cleavage was 0.23. On to UAACAGGGGGCCCCAGCAGAAGCGUUCACGUCGCAGCCCCUGUCAGAUUCUGGUGAAUCAGCGGAUUCUGCUGUAUAUCUC [A13C U60A A64G], for which the self-cleavage stood at 0.49.

Turning to UAACAGGGGGCCCCAGCAGAAGCGUUCACGUCGCAGCCCCUGUCAGACUCUGGUGAAUCUGCGAAUUCUGCCGUAUAUCUC [A13C U48C U72C], the self-cleavage is 0.5. As for UAACAGGGGGCCGCUGCAGAAGCGUUCACCACGCAGCCCCGGUCAGAUUCUGGUGGAUCUGGGAAUUCUGCUGUAUAUCUC [A13G A15U G30C U31A U41G A56G C62G], the self-cleavage was 0.04. In the case of UAACAGGGGGCCGCAGCGGAAGCGUUCACGUCGCAGCCCCUGUCAGAUUCUGGUGGAUCAGCGAAUUCUGCUGUAAAUCUC [A13G A18G A56G U60A U76A], the self-cleavage was found to be 0.16. Turning to UAACAGGGGGCCGCCGCAGAAGCGUUCACGUCGCAGCCCUAGUCAGAUUCUGGUGAAUCUACGGAUUCUGCUGUAUAUCUC [A13G A15C C40U U41A G61A A64G], the self-cleavage worked out at 0. For UAACAGGGGGCCCCAGCAGAAGCGUUCACGUCGCAGCCCCUGCCAGAUUCUGGUGAAUCUGCGAGUUUUGCUGUAUAUCUC [A13C U43C A65G C68U], the self-cleavage worked out at 0.24. For UAACAGGGGGCCGCAGCGGAAGCGUUCACGUCGCAGCCCCUGUCAGAUUCUGGUGAAUCUGCGAAUCCUGCGGUAUAUCUC [A13G A18G U67C U72G], the self-cleavage came out at 0.02. As for UAACAGGGGGCCGCGGCUGAAGCGUUCACGUCGCAGCCCCAGUCAGAUUCUGGUGAAUUUGCGAAUCCCGCUGUAUAUCUC [A13G A15G A18U U41A C59U U67C U69C], the self-cleavage turned out to be 0.04.

Consider UAACAGGGGGCCGCGGCAGGAGCGUUCACGUCGCAGCCCCAGUCAGGUUCUGGUGAACCUGCGAAUUCUGCUGUCUAUCUC [A13G A15G A20G U41A A47G U58C A75C], for which the self-cleavage is 0.39. Take UAACAGGGGGCCGCAGCGGAAGCGUUCACGUCGCAGCCCCUGUCAUUUUCUGGUGAAUCUGCGAAUUCUGCUGUAUAUCUC [A13G A18G G46U A47U]: the self-cleavage was 0.22. With UAACAGGGGGCCGCAGCGGAGGCGCUCACGUCGCAGCCCCUGUCAGAUUCUGGUGAAUCUGCGAAUUCUGCUGUAUAUCUC [A13G A18G A21G U25C], the self-cleavage was 0.45. With UAACAGGGGGCCGCAGCGGAAGCGUUCACGUCGCAGCCCCUGACAGAUUCUGGUGAAUCUGCGAACUCUGCUGUAUAGCUC [A13G A18G U43A U66C U78G], the self-cleavage was determined as 0.26.

As to UAACAGGGGGCCGCGGCAGAAGCGUUCACGUCGCAGCCCCUGUCAGAUUCUGGUGAAUCUGCGAAUACUGCUGUAUAACUC [A13G A15G U67A U78A], the self-cleavage is 0.1. Turning to UAACAGGGGGCCGCAGCGGAAGCGUUCACGUCGCAGCCCCUGUCGGAUUCUGGAGAAUCUGCGAAUCCUGCCGUAUAUCUC [A13G A18G A45G U54A U67C U72C], the self-cleavage stood at 0.21.

Take UAACAGGGGGCCGCAGCGGAAGCGCUCACUUCGCAGCCCCCGUCAGAUUCUGGUGAAUCUGCGAAUUCUGCUGUUUAUCUC [A13G A18G U25C G30U U41C A75U]: the self-cleavage amounted to 0.04. As to UAACAGGGGGCCCCAGCAGAAGCGUUCACGUCGCAGCCCCUGACAGACUCUGGUGAAUCUGCGAAUUCCGCUGUAUAUCUC [A13C U43A U48C U69C], the self-cleavage stood at 0.08.

Take UAACAGGGGGCCGCAGCGGAAGCGUUCACGUCGCAGCCCCAGUCAGAUUCUGGUGAAUCUGCGAAUUCUGCUGUAUAUCUC [A13G A18G U41A]: the self-cleavage is 0.24. Consider UAACAGGGGGCCGCAGCGGGAGCGUUCACGCCGCAGCCCCUGUCAGAUUCUGGUGAAUCUGCGAAUUCUGCUGUAUAUCUC [A13G A18G A20G U31C], for which the self-cleavage was determined as 0.51. Turning to UAACAGGGGGCCCCAGCAGAAGCGUUCACGUCGCAGCCCCUGACAGAUACUGGUGAAUCUGCGAAUCCUGCUGUAUAUCUC [A13C U43A U49A U67C], the self-cleavage is 0.21. For UAACAGGGGGCCCCAGCAGAAGCGUUCACGUCGCAGCCCCUGACAGAUCCUGGUGAAUCCGCGAAUUCUGCUGUAUAUCUC [A13C U43A U49C U60C], the self-cleavage worked out at 0.14. Take UAACAGGGGGCCGCGGCAGGAGCGUUCACGUCGCUGCCCCUGUCAGAUUCUGGUGAAUCGGCGAAUUCUGCAGUACAUCUC [A13G A15G A20G A35U U60G U72A U76C]: the self-cleavage was 0.05. UAACAGGGGGCCGCGGCAGAAGCGUUCACGUCGCAGCCCCUGUCGGAUUCUGGUGAAUCCGCGAUUUCUGCUGUAUAUCUC [A13G A15G A45G U60C A65U]: the self-cleavage is 0.24.

Take UAACAGGGGGCCGCCGAAGAAGCGUUCACGUCGCAGCCCCAAUCAGAUUCUGGUGAAUCUGCGAAUUCUGCUGUACAUCUC [A13G A15C C17A U41A G42A U76C]: the self-cleavage was found to be 0.24.

Take UAACAGGGGGCCGCAGCCGGAGCGUUCACGUCGCAGCCCCUGUCAGAUUCUGGUGAAUCUGCGAAUUCUGCUGUAUAUCUC [A13G A18C A20G]: the self-cleavage amounted to 0.05.

For UAACAGGGGGCCGCAGCGGGAGCGUUCACGUCGCAGCCCCUGUCAGAUUCUGGUGAAUCUGUGAAUUCUGCUGUAUAUCUC [A13G A18G A20G C62U], the self-cleavage came to 0.13. UAACAGGGGGCCCCAGCAGAAGCGUUCACGUCGCAGCCCCUGCCAGAUUCUGGUGGACCUGCGAAUUCCGCUGUAUAUCUC [A13C U43C A56G U58C U69C]: the self-cleavage stood at 0.11.

In the case of UAACAGGGGGCCGCUGCAGAAGCGUUCUCGUCGCAGCCCCUGUCAGAUUCUGGUGAAUCUGCGAAUUCUGCUGUAUAUCUC [A13G A15U A28U], the self-cleavage came out at 0.28. Consider UAACAGGGGGCCGCUGCAGAAGCGUUCACGUCGCGGCCCAUGUCCGAUUCUGGUGAAUCUGCGAAUUCUGCCGUAUAUCUC [A13G A15U A35G C40A A45C U72C], for which the self-cleavage amounted to 0.03.

On to UAACAGGGGGCCGCAGCGGAAGCGUUCACGUCGCAGCCCCUGCCAGAUUCUGGUGAAUCUGCGAAUUCUGCUGUAUAUCUC [A13G A18G U43C], for which the self-cleavage amounted to 0.13. As for UAACAGGGGGCCGCAGCGGAAGCGAUCACGUCGCAGCCCCUGUCGGAUUCUGGUGAAUCUGCGAAUUCUGCUGUACAUCUC [A13G A18G U25A A45G U76C], the self-cleavage came to 0.07.

As to UAACAGGGGGCCCCAGCAGAAGCGUUCACGUCGCAGCCCCUGUCAGAUUCUGGCGAAUCUGCGAAUUCAGCUGUAUAUCUC [A13C U54C U69A], the self-cleavage turned out to be 0.13.

With UAACAGGGGGCCGCGGCAGAAGCGUUCACAUCGCAGCCCCUGUCAGAUUCUGGUGAAUCUGCGAAUUCUGCUGUAUAUCUC [A13G A15G G30A], the self-cleavage amounted to 0.41. To UAACAGGGGGCCGCUGCAGAAGCGUACGCGUCGCAGCCCCUGUCAGAUCCUGGUGAAUCUGCGAGUCCUGCUGUAUAUCUC [A13G A15U U26A A28G U49C A65G U67C] belongs 0.13.
